Reference: paper PMC6954185 (Nature Communications, 2020)
Results are given in words; binding and its absence hold for the method and conditions named. Some entries that bind do so weakly or less than the wild type. For some of these results: Where a sequence is shown, tags or fusion partners need not be part of it. One block for each molecule: values may come before it.

By UniProt entry, the sequences of proteins in these tests, tags left out. Residues count along the entry.
UniProt O75334, residues 866-1193: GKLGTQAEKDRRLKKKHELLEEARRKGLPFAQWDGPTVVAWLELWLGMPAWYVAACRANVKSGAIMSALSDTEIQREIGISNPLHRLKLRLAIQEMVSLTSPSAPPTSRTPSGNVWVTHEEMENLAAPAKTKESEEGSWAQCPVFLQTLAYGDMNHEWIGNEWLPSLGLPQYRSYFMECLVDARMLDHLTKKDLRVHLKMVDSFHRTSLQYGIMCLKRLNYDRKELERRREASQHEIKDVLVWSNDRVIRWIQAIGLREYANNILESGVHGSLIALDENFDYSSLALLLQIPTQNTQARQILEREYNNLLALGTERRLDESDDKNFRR
UniProt O14936, residues 1-345: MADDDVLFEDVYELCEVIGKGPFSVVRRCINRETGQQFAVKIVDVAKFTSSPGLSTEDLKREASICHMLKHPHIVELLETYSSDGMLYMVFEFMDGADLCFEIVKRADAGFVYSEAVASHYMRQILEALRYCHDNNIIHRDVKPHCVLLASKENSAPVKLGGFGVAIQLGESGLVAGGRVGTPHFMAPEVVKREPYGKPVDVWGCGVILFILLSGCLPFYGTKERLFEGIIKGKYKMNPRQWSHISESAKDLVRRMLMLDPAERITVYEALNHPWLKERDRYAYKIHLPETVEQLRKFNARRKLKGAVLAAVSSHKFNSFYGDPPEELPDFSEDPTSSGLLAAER
UniProt P60469, residues 806-1126: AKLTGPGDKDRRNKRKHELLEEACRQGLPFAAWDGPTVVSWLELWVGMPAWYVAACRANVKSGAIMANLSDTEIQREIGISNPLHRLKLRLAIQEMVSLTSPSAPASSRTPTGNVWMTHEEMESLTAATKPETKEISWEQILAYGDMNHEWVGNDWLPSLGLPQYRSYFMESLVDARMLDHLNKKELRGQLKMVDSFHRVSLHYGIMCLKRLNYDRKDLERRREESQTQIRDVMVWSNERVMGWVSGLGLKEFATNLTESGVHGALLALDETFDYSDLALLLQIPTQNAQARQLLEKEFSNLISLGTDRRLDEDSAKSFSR

How the values were obtained:
[1] = biological target: liprin-α2_SAM123 (C-terminal SAM repeats of human liprin-α2), Trx-His6-tagged (human) (UniProt O75334); assay: SEC; analytical gel filtration, Superdex 200 Increase 10/300 GL; 50 mM Tris-HCl pH 7.5, 100 mM NaCl, 1 mM EDTA, 1 mM DTT; N-terminal tags kept; both purified
[2] = biological target: α2_SAM123/LAR_D1D2 complex (formed beforehand) (human) (UniProt O75334+P10586); assay: as above
[3] = biological target: T1, liprin-β1_SAM123 (mouse), Trx-His6-tagged (mouse) (UniProt Q8C8U0); assay: as above
T1 sequence: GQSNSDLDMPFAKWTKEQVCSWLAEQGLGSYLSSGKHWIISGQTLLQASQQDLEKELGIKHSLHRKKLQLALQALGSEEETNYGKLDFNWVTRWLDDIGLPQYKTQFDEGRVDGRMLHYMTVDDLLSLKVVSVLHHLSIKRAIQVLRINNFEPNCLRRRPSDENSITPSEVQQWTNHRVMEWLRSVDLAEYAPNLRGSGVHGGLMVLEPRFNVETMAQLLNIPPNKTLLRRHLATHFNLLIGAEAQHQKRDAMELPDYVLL

[4] = biological target: T2, LAR_D1D2 F1829E mutant, His6-SUMO-tagged (human) (UniProt P10586); assay: as above
T2 sequence: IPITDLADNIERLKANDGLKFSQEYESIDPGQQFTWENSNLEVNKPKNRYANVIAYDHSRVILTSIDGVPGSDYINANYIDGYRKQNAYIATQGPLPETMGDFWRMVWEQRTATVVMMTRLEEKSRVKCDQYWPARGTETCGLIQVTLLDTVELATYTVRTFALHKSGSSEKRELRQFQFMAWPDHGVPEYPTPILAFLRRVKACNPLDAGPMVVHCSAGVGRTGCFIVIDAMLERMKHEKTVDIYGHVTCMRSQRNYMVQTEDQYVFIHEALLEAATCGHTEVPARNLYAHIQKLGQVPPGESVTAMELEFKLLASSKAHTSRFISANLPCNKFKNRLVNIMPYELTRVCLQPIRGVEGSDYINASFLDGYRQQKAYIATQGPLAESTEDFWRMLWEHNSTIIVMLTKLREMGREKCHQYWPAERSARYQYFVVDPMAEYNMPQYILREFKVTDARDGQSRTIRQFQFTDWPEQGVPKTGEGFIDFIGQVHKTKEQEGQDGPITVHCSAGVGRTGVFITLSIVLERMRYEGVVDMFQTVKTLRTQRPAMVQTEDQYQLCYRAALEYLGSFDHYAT

[5] = biological target: T2, LAR_D1D2 F1829E mutant, His6-SUMO-tagged (human); assay: ITC; VP-ITC at 25 °C; 50 mM Tris-HCl pH 7.5, 100 mM NaCl, 1 mM EDTA, 1 mM DTT; liprin-α fragments at 200 μM injected into LAR-RPTP fragments at 20 μM; one-site binding model; N-terminal tags kept; both purified
[6] = biological target: LAR_D1D2 L1539C mutant (human) (UniProt P10586); assay: cross-linking + SEC; site-specific disulfide cross-linking: LAR_D1D2 cysteine mutants incubated for 3 days at room temperature in 50 mM Tris-HCl pH 7.5, 100 mM NaCl, 1 mM EDTA without reducing reagent, then analytical gel filtration; oligomers reversible with DTT; both purified
[7] = biological target: LAR_D1D2 T1593C mutant (human) (UniProt P10586); assay: as above

Molecule: CASK_CaMK (CaMK domain of calcium/calmodulin-dependent serine protein kinase) (from UniProt O14936 1-345) (domain or fragment)
binding [1]: binds
binding [2]: binds

B1: LAR_D1D2 L1539C mutant (domain or fragment, UniProt P10586 1332-1907)
chain: IPITDLADNIERLKANDGLKFSQEYESIDPGQQFTWENSNLEVNKPKNRYANVIAYDHSRVILTSIDGVPGSDYINANYIDGYRKQNAYIATQGPLPETMGDFWRMVWEQRTATVVMMTRLEEKSRVKCDQYWPARGTETCGLIQVTLLDTVELATYTVRTFALHKSGSSEKRELRQFQFMAWPDHGVPEYPTPILAFLRRVKACNPCDAGPMVVHCSAGVGRTGCFIVIDAMLERMKHEKTVDIYGHVTCMRSQRNYMVQTEDQYVFIHEALLEAATCGHTEVPARNLYAHIQKLGQVPPGESVTAMELEFKLLASSKAHTSRFISANLPCNKFKNRLVNIMPYELTRVCLQPIRGVEGSDYINASFLDGYRQQKAYIATQGPLAESTEDFWRMLWEHNSTIIVMLTKLREMGREKCHQYWPAERSARYQYFVVDPMAEYNMPQYILREFKVTDARDGQSRTIRQFQFTDWPEQGVPKTGEGFIDFIGQVHKTKEQFGQDGPITVHCSAGVGRTGVFITLSIVLERMRYEGVVDMFQTVKTLRTQRPAMVQTEDQYQLCYRAALEYLGSFDHYAT
binding [6]: no binding

Second part, led by results:

binding [3]: binds
Molecule: liprin-α2_SAM123 (C-terminal SAM repeats of human liprin-α2), Trx-His6-tagged (from UniProt O75334 866-1193) (domain or fragment)

binding [4]: no binding
Molecule: liprin-α3_SAM123 (mouse), Trx-His6-tagged (from UniProt P60469 806-1126) (domain or fragment)
binding [5]: no binding (tested: 200 μM injected into 20 μM)

binding [7]: no binding
B2: LAR_D1D2 T1593C mutant (domain or fragment, UniProt P10586 1332-1907)
chain: IPITDLADNIERLKANDGLKFSQEYESIDPGQQFTWENSNLEVNKPKNRYANVIAYDHSRVILTSIDGVPGSDYINANYIDGYRKQNAYIATQGPLPETMGDFWRMVWEQRTATVVMMTRLEEKSRVKCDQYWPARGTETCGLIQVTLLDTVELATYTVRTFALHKSGSSEKRELRQFQFMAWPDHGVPEYPTPILAFLRRVKACNPLDAGPMVVHCSAGVGRTGCFIVIDAMLERMKHEKTVDIYGHVTCMRSQRNYMVQCEDQYVFIHEALLEAATCGHTEVPARNLYAHIQKLGQVPPGESVTAMELEFKLLASSKAHTSRFISANLPCNKFKNRLVNIMPYELTRVCLQPIRGVEGSDYINASFLDGYRQQKAYIATQGPLAESTEDFWRMLWEHNSTIIVMLTKLREMGREKCHQYWPAERSARYQYFVVDPMAEYNMPQYILREFKVTDARDGQSRTIRQFQFTDWPEQGVPKTGEGFIDFIGQVHKTKEQFGQDGPITVHCSAGVGRTGVFITLSIVLERMRYEGVVDMFQTVKTLRTQRPAMVQTEDQYQLCYRAALEYLGSFDHYAT
